Among the data in ChEMBL document CHEMBL5606460, “ASAP - DENV-2 NS2B-NS3 protease fluorescence single point” (2024) are inhibition values, retold here.

For this test, the target named is Genome polyprotein (dengue virus type 2) (UniProt P29990).
Where [1] appears, read: Thailand/16681/1984, Concentration 25.0 uM, Number of replicates 1.0.

Out of some 2,000 compounds screened, about 110 (5.5%) showed an effect of 50% or more. The list shows a part of the results.

By inhibition is commonly meant the drop in the measured response relative to a control, in per cent.

Turning to `O=Cc1ccc(N2CCC(C(=O)NCc3ccccc3N3CCOCC3)CC2)cc1`, under setting [1], the inhibition was found to be 11.4%.
For `Cc1cc(CO)c2cccc(C[C@H](NC(=O)C[C@H]3CCCN3)C(=O)O)c2n1`, the inhibition by setting is: (Thailand/16681/1984, Concentration 49.95 uM, Number of replicates 2.0, Standard deviation 0.0013512279632592627 %) 3.5%; (Thailand/16681/1984, Concentration 99.9 uM, Number of replicates 2.0, Standard deviation 1.378906641613337 %) 9%.
Take `c1ccc2c(CN3CCC(c4c[nH]c5ncccc45)CC3)ccnc2c1`: the inhibition was 4.29% (Thailand/16681/1984, Concentration 49.5 uM, Number of replicates 2.0, Standard deviation 0.597215280015365 %); 6.39% (Thailand/16681/1984, Concentration 99.01 uM, Number of replicates 2.0, Standard deviation 0.3164914750615221 %); 5.45% (Thailand/16681/1984, Concentration 198.0 uM, Number of replicates 2.0, Standard deviation 1.585167923429043 %).
With `CC1(C)Cc2sc(NC(=O)Cc3ccc(S(N)(=O)=O)cc3)c(C#N)c2CN1CC1CCCCC1`, the inhibition is, setting by setting: (Thailand/16681/1984, Concentration 49.5 uM, Number of replicates 2.0, Standard deviation 0.009484052439315419 %) 8.25%; (Thailand/16681/1984, Concentration 99.01 uM, Number of replicates 2.0, Standard deviation 0.7150155530159198 %) 14.5%; (Thailand/16681/1984, Concentration 198.0 uM, Number of replicates 2.0, Standard deviation 0.2762742778628508 %) 23.9%.
`Cc1c(C(=O)NCCc2n[nH]c(=O)[nH]2)ccc(O)c1NC(=O)c1ccncc1F`: the inhibition (Thailand/16681/1984, Concentration 49.5 uM, Number of replicates 2.0, Standard deviation 1.0172201525894917 %) is -0.387%; the inhibition (Thailand/16681/1984, Concentration 99.01 uM, Number of replicates 2.0, Standard deviation 2.3283401843548477 %) was -1.06%; the inhibition (Thailand/16681/1984, Concentration 198.0 uM, Number of replicates 2.0, Standard deviation 0.008708044664532838 %) was 2.8%.
For the compound `C[C@@H](c1ccccc1)N(Cc1ccncc1)C(=O)C1CCN(c2ccc(C=O)cc2)CC1`, the inhibition under setting [1] is 13.9%.
Still for that read-out and setting: the result for `COc1ccc([C@H](C)N(C)C(=O)C2CCN(c3ccc(C=O)cc3)CC2)cc1` reads 15.9%.
On to `O=Cc1ccc(N2CCC(C(=O)N3CCC(O)(c4ccc(Br)cc4)CC3)CC2)cc1`, for which the inhibition under setting [1] is 14.6%.
In the case of `Nc1ccc(-c2cccc3c2CCB(O)O3)cn1`, the inhibition was found to be 0.39% (Thailand/16681/1984, Concentration 49.5 uM, Number of replicates 2.0, Standard deviation 1.624587027904312 %); 1.77% (Thailand/16681/1984, Concentration 99.01 uM, Number of replicates 2.0, Standard deviation 2.612012013848058 %); 4.81% (Thailand/16681/1984, Concentration 198.0 uM, Number of replicates 2.0, Standard deviation 2.3581154998349447 %).
With `Cc1cc(CO)c2cccc(Cc3ccccc3NC(=O)Cc3cccc(CN)c3)c2n1`, the inhibition (Thailand/16681/1984, Concentration 49.95 uM, Number of replicates 2.0, Standard deviation 1.4858035354408357 %) was -0.82% and the inhibition (Thailand/16681/1984, Concentration 99.9 uM, Number of replicates 2.0, Standard deviation 1.2081673980721888 %) was determined as 5.26%.
On to `CCn1ccnc(N[C@@H](CO)Cc2c[nH]c3ccccc23)c1=O`, for which the inhibition reads like this: (Thailand/16681/1984, Concentration 49.5 uM, Number of replicates 2.0, Standard deviation 0.9468711829394424 %) -2.46%; (Thailand/16681/1984, Concentration 99.01 uM, Number of replicates 2.0, Standard deviation 0.21359432769441944 %) -0.899%; (Thailand/16681/1984, Concentration 198.0 uM, Number of replicates 2.0, Standard deviation 0.5745114470721225 %) 3.07%.
As to `CCn1ccnc(N2CC[C@H](c3cccc(C#N)c3)C2)c1=O`, the inhibition (Thailand/16681/1984, Concentration 50.0 uM, Number of replicates 2.0, Standard deviation 0.8963946841699463 %) was 7.12%; the inhibition (Thailand/16681/1984, Concentration 100.0 uM, Number of replicates 2.0, Standard deviation 1.1353241568538404 %) was 15.9%; the inhibition (Thailand/16681/1984, Concentration 200.0 uM, Number of replicates 2.0, Standard deviation 0.6166454829410692 %) was found to be 29.2%.
With `CNC(=O)c1cc(Cl)ccc1NS(=O)(=O)Cc1noc(C)n1`, the inhibition (Thailand/16681/1984, Concentration 49.5 uM, Number of replicates 2.0, Standard deviation 0.1867091902041082 %) is -5.82%.
`c1cnc2c(C3CCN(Cc4csc5ccccc45)CC3)c[nH]c2c1`: the inhibition is, setting by setting: (Thailand/16681/1984, Concentration 49.5 uM, Number of replicates 2.0, Standard deviation 2.2496338528933 %) -1.06%; (Thailand/16681/1984, Concentration 99.01 uM, Number of replicates 2.0, Standard deviation 3.116500412849666 %) 0.66%; (Thailand/16681/1984, Concentration 198.0 uM, Number of replicates 2.0, Standard deviation 2.658135185708288 %) -1.07%.
`Cc1ccc(NC(=O)C2CCN(c3ccc(C=O)cc3)CC2)cc1Br`: under setting [1], the inhibition was 8.71%.
Regarding `c1cnc2c(CN3CCC(c4c[nH]c5cccnc45)CC3)c[nH]c2c1`, the inhibition (Thailand/16681/1984, Concentration 49.5 uM, Number of replicates 2.0, Standard deviation 2.401783006640112 %) is -4.14%; the inhibition (Thailand/16681/1984, Concentration 99.01 uM, Number of replicates 2.0, Standard deviation 2.691377880268528 %) was -3.47%; the inhibition (Thailand/16681/1984, Concentration 198.0 uM, Number of replicates 2.0, Standard deviation 2.989922552884535 %) is -1.51%.
`N#Cc1cc(Cl)ccc1NC(=O)C1CCN(c2ccc(C=O)cc2)CC1`: the inhibition under setting [1] was 13.9%.
On the same count and under the same terms, the result for `CN(C(=O)C1CCN(c2ccc(C=O)cc2)CC1)[C@H]1CCN(Cc2ccccc2)C1` reads 13.8%; that for `Cc1ccccc1OC1CN(C(=O)C2CCN(c3ccc(C=O)cc3)CC2)C1`, 8.5%.
With `O=C(c1cc2ccccc2[nH]1)N1CCC[C@H](c2c[nH]c3ncccc23)C1`, the inhibition amounted to 3.74% (Thailand/16681/1984, Concentration 49.5 uM, Number of replicates 2.0, Standard deviation 0.6846779142829902 %); 6.35% (Thailand/16681/1984, Concentration 99.01 uM, Number of replicates 2.0, Standard deviation 0.6286192340156203 %); 4.86% (Thailand/16681/1984, Concentration 198.0 uM, Number of replicates 2.0, Standard deviation 0.39513209958624096 %).
As for `O=Cc1ccc(N2CCC(C(=O)Nc3ccn([C@H]4C[C@H](O)[C@@H](CO)O4)c(=O)n3)CC2)cc1`, the inhibition under setting [1] came out at 12%.
As to `CC(C)(CO)NC(=O)c1cc(Cl)cc(NC(=O)c2cc(Cc3ccccc3)c[nH]2)c1`, the inhibition by setting is: (Thailand/16681/1984, Concentration 49.5 uM, Number of replicates 2.0, Standard deviation 0.8087393545109293 %) 4.06%; (Thailand/16681/1984, Concentration 99.01 uM, Number of replicates 2.0, Standard deviation 0.3574046010228052 %) 6.02%; (Thailand/16681/1984, Concentration 198.0 uM, Number of replicates 2.0, Standard deviation 0.9223949064289227 %) 9.8%.
